Out of some 310,000 compounds screened, about 14,000 (4.5%) showed an effect of 50% or more. The effect is printed as a negative number. The list shows a part of the results.
Biological target: human ether-à-go-go-related gene (hERG) potassium channel (human, UniProt Q12809)
Assay: primary screen, population patch clamp on CHO cells stably expressing hERG
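Also: peak tail current of the secondary pulse compared with the same well before compound.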

Sequence of human ether-à-go-go-related gene (hERG) potassium channel (Q12809 whole entry, looked up): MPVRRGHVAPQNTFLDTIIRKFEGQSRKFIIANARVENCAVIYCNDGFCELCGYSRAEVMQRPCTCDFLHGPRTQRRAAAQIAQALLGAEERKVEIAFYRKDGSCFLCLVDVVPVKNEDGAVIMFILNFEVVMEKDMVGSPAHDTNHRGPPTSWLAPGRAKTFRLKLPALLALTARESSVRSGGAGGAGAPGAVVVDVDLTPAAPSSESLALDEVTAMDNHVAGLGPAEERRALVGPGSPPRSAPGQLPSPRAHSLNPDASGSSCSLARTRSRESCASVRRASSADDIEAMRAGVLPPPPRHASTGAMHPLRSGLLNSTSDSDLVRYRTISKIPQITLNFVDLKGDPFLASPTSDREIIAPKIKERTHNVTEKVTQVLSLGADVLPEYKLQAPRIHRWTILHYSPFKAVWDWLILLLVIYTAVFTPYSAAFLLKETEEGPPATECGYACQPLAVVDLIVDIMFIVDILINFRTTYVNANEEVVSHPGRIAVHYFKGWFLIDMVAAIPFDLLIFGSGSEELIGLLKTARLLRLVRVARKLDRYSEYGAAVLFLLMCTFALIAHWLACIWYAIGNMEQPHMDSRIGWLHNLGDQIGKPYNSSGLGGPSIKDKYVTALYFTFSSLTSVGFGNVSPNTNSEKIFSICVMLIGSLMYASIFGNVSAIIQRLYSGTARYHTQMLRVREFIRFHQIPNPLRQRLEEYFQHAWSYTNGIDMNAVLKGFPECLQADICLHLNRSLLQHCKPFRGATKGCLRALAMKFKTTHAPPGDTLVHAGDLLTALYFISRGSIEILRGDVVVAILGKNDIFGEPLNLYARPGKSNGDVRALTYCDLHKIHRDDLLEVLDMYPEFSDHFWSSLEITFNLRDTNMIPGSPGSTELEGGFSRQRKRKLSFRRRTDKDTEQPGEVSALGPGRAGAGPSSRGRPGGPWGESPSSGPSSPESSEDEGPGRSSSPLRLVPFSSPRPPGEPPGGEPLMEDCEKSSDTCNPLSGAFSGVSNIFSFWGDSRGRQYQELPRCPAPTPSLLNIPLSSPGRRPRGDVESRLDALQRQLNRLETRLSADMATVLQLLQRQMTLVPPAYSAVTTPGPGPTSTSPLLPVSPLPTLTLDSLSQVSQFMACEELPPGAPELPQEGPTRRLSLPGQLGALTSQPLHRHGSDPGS

Row | SMILES | hERG current change (%, negative = inhibition) at 10uM [%]
1 | CSc1nc(O)c(C(c2ccc(OC(C)C)cc2)c2c(O)nc(SC)[nH]c2=O)c(=O)[nH]1 | 16.9
2 | Cc1cn(C2OC(CC(=O)Oc3ccccc3)C(O)C2O)c(=O)[nH]c1=O (stereo not drawn) | 8.48
3 | Cc1c(CCC(=O)NC2CC2)c(=O)oc2c(C)c(O)ccc12 | 18.3
4 | COc1c(O)c(=O)n2c3ccccc3c3ccnc1c32 | 7.51
5 | CCOc1cc(/C=N/n2c(C)nc3sc(C)c(C)c3c2=O)ccc1O | 13.2
6 | O=C(O)c1ccccc1/C=N/NC(=O)C1CCCCC1 | -1.66
7 | CC(C)CCNC(=O)C1CCCN(S(=O)(=O)c2ccc(-n3cnnn3)cc2)C1 (stereo not drawn) | 22.5
8 | Cc1ccc(C2=NC(C)(C)N3C2C3c2ccc([N+](=O)[O-])cc2)cc1 (stereo not drawn) | -30.5
9 | Cc1cccc(OCC(=O)N(Cc2ccco2)c2c(N)n(Cc3ccccc3)c(=O)[nH]c2=O)c1 | -14.2
10 | COc1ccccc1N1CCN(C(=O)C2CC=CCC2C(=O)O)CC1 (stereo not drawn) | -13.1
11 | Cc1cc(C)c(NC(=O)CS(=O)CC(=O)N2CCN(c3ccccc3)CC2)c(C)c1 (stereo not drawn) | -12.1
12 | CCOc1ccc(-c2c(C(=O)N/N=C/c3ccc(O)cc3)nnn2-c2nonc2N)cc1 | 17.5
13 | O=C(O)c1cccnc1C(=O)N1CCc2c([nH]c3ccccc23)C1C(F)(F)F (stereo not drawn) | 10.1
14 | Cc1[nH]c2ccccc2c1C(c1ccccn1)N1CCCC1 (stereo not drawn) | -29.1
15 | CCOC(=O)C1CCN(C(=O)c2cc3cc(C)ccc3[nH]2)CC1 | -27.3
16 | CCc1nonc1NC(=O)c1oc2cc(C)c(Cl)cc2c1C | 16.3
17 | CCOC(=O)Cn1c(=N)n(CCOc2cccc(C)c2)c2ccccc21.Cl | -62.2
18 | Nc1nc(N2CCN(c3cccc(Cl)c3)CC2)n[nH]1 | 5.88
19 | NC(=O)c1cc(S(=O)(=O)NCCc2ccc(S(N)(=O)=O)cc2)cs1 | 9.13
20 | CCSC1=NCCN1S(=O)(=O)c1ccc2ccccc2c1 | -11.8
21 | CCOc1cc(NC(=S)NCC2CCCO2)c(OCC)cc1NC(=O)c1ccc(C)cc1 (stereo not drawn) | -1.6
22 | COc1ccc(OC)c(COC(=O)c2cc([N+](=O)[O-])ccc2N2CCOCC2)c1 | -18
23 | COc1ccc(Cl)cc1NC(=S)NNC(=O)c1cccs1 | 20
24 | CC1CCN(C(=O)Cn2cc(C(=O)c3ccco3)c3ccccc32)CC1 | 9.74
